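Five compound concentrations were applied to cells in 96-well plates for 48 hours; endpoints were derived by simple linear interpolation of the resulting dose-response curve. GI50 is the concentration that inhibits growth by half.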 Calls of active or inactive are those of the source. No stated cut-off is given here; in the data, active = GI50 up to about 1.1 µM and inactive = higher.
tested on: NCI-H322M; assay: growth of human tumour cells (NCI), 48 h

Compound	GI50
C/C(=N/Nc1nc(C)cc(O)n1)C(=O)O	inactive: > 100 µM
CC(C)(C)CC(C)(C)c1ccc(O)c(C[N+](C)(C)[O-])c1	inactive: > 100 µM
Cc1nc(N)sc1C(=O)/C=C/c1ccc([N+](=O)[O-])cc1	inactive: > 100 µM
CC(=O)Oc1cc2c(n(C)c1=O)-c1ccccc1C2	inactive: > 100 µM
O=c1c2cc(-c3ccccc3)cnc2sn1-c1ccc(Br)cc1	inactive: > 100 µM
Cc1ccc(N2C(=O)/C(=C3\Sc4c(nc(C)[nH]c4=O)N3c3ccccc3)SC2=S)cc1	inactive: > 100 µM
CC(C)N1CC2CC(CN(C(=O)c3ccccc3)C2)C1.[O-][Cl+3]([O-])([O-])O	inactive: > 100 µM
COc1cc(NC(C)=O)ccc1C(=O)N/N=C/c1ccc(Cl)cc1Cl	inactive: 44 µM
C/C(=N/NC(=S)N(C)C)c1ccccc1O	inactive: 12.6 µM
Cc1ccc(/N=C/c2ccc3c(c2)OCO3)cc1C	inactive: > 100 µM
CC(C)C(NCc1c2ccccc2[n+]([O-])c2ccccc12)C(=O)O (stereo unspecified)	inactive: 45.8 µM
Cn1c(N)c(-c2c3ccccc3nc3ccccc23)c(=O)n(C)c1=O	inactive: > 100 µM
[N-]=[N+]=NCC1OCC(O)C(OCc2ccccc2)C1OCc1ccccc1 (stereo unspecified)	inactive: > 100 µM
COC(=O)C(=O)C(C(=O)C(=O)Nc1ccccc1C(N)=O)c1nc2ccc(Cl)cc2nc1O (stereo unspecified)	inactive: > 100 µM
C/N=c1\sc2nc(C#N)c(C#N)nc2n1C	inactive: 17.8 µM
NC1=NS(=O)(=O)Nc2nc(-c3ccc(Cl)cc3)[nH]c21	inactive: > 100 µM
Cc1cn(C2CC(n3cc(Cn4ccc(=O)[nH]c4=O)nn3)C(CO)O2)c(=O)[nH]c1=O (stereo unspecified)	inactive: > 100 µM
NC(CCCC(N)P(=O)(O)c1ccccc1)P(=O)(O)c1ccccc1 (stereo unspecified)	inactive: > 261 µM
COc1cnc2cc(C(=O)O)c3ccccc3c2c1	inactive: > 100 µM
C/C(=N/NC(N)=S)c1ccc2ccccc2c1	inactive: 52.1 µM
CCc1c(-c2ccc(OC)cc2)c(=O)oc2cc(O)ccc12	inactive: 35.7 µM
O=P(O)(O)c1ccccc1Oc1ccccc1	inactive: > 100 µM

Compound	GI50
O=C1/C(=C/c2ccccc2O)N=C(c2ccccc2)N1C1Nc2cc3c(cc2S1)NC(N1C(=O)/C(=C/c2ccccc2O)N=C1c1ccccc1)S3 (stereo unspecified)	inactive: 66.5 µM
CCOC(=O)c1cc2cc(CSc3ccccc3)ccc2oc1=O	inactive: > 100 µM
CCOC(=O)C(O)(CC1=NC(C(=O)OC)(C(=O)OC)C(c2cccc(C=O)c2)O1)C(=O)OCC (stereo unspecified)	inactive: > 100 µM
N#C/C(=C\n1ccc(=O)[nH]c1=S)C(N)=O	inactive: > 100 µM
C[C@]12CC[C@@H]3c4ccc(O)cc4CC[C@H]3[C@@H]1CC[C@@H]2OC(=O)CCc1ccccc1	inactive: 20.6 µM
O=C(C[n+]1ccccc1)NNC(=O)/C(=C/c1ccc2c(c1)OCO2)NC(=O)c1ccccc1	inactive: > 100 µM
CC(NC1=CC(=O)c2cccnc2C1=O)C(O)c1ccccc1 (stereo unspecified)	inactive: 1.99 µM
C/C(=N/NC(=O)c1ccncc1)c1ccc(NC(=O)C(=O)Nn2c(S)nc3ccccc3c2=O)cc1	inactive: > 100 µM
Cc1cc(C)nc(NS(=O)(=O)c2ccc(NC(=O)c3cccc4c(Nc5ccc(S(=O)(=O)Nc6cc(C)on6)cc5)c5ccccc5nc34)cc2)n1	inactive: 13.6 µM
O=C1c2cc([N+](=O)[O-])sc2C(=O)c2cc([N+](=O)[O-])sc21	inactive: 10 µM
CCC(C)(C)NS(=O)(=O)c1ccccc1	inactive: > 100 µM
CC(=O)OCC1OC(On2ccccc2=S)C(OC(C)=O)C(OC(C)=O)C1OC(C)=O (stereo unspecified)	inactive: > 100 µM
Cc1c(CCN2CCOCC2)c(N2CCOCC2)n2c(nc3ccccc32)c1C#N	inactive: > 10 µM
O=C1c2ccccc2OP(=O)(OCC(F)(F)F)OC1(C(F)(F)F)C(F)(F)F (stereo unspecified)	inactive: > 100 µM
CCOC(=O)C(=O)Nc1c(C)cccc1C	inactive: > 100 µM
O=C(O)[C@@H]1CCC(=O)N1C(c1ccc2c(c1)OCO2)c1ccc2c(c1)OCO2	inactive: > 100 µM
CC(=O)OCC1OC(n2c(=O)n(-c3ccccc3)c(=O)c3cc(Br)cc(Br)c32)C(OC(C)=O)C(OC(C)=O)C1OC(C)=O (stereo unspecified)	inactive: > 100 µM
COc1cc(C(CC(OC)OC)=C(C#N)C#N)cc(OC)c1OC	inactive: 17.3 µM
Cc1nc2ccc([N+](=O)[O-])cc2c(=O)n1C(=S)Nc1cccc(Cl)c1	inactive: 20.7 µM
Nc1nc(N)c2c(CCc3ccc(C(=O)N[C@@H](CCC(=O)O)C(=O)O)cc3)ccnc2n1	active: 0.245 µM
NCc1ccccc1-c1c2nc(c(-c3ccccc3CN)c3ccc([nH]3)c(-c3ccccc3CN)c3nc(c(-c4ccccc4CN)c4ccc1[nH]4)C=C3)C=C2	inactive: 16.1 µM
Nc1nc(-[n+]2ccc(-c3ccncc3)cc2)nc(Cl)c1Cl	inactive: > 100 µM

Compound	GI50
Cn1/c(=N\c2ccccc2[N+](=O)[O-])sc2ccccc21	inactive: 83.6 µM
CC1C(C#N)(C#N)C(C#N)=C(N)C1(C)[N+](=O)[O-] (stereo unspecified)	inactive: > 100 µM
Cc1ccnc(NC(=S)Nc2cccc(Cl)c2)c1	inactive: > 100 µM
CCN(CC)CCCNC(=O)c1cc2cc(NC(=O)c3cc4cc([N+](=O)[O-])ccc4[nH]3)ccc2[nH]1	inactive: > 100 µM
O=C(N/C(=C\c1ccc(Br)cc1)c1nc2ccccc2[nH]1)c1ccccc1	inactive: 19.6 µM
O=C1O/C(=C(\Br)c2ccc([N+](=O)[O-])cc2)c2ccccc21	inactive: > 100 µM
Cc1cc(C)nc(NC(=O)c2ccc(Br)s2)c1	inactive: > 100 µM
C/C(=N\O)c1cccc[n+]1Cc1ccccc1	inactive: > 100 µM
N#Cc1cc([N+](=O)[O-])ccc1NC(=O)C(F)(F)F	inactive: > 100 µM
c1ccc2c(c1)N=c1ccccc1=P21c2ccccc2Nc2ccccc21	active: 0.47 µM
NC(CNc1ccc(O)cc1)C(=O)O (stereo unspecified)	inactive: > 100 µM
CC(C)NC(C)C(C)c1ccccc1 (stereo unspecified)	inactive: > 100 µM
NC1=NC(=O)C(CC(=O)Nc2ccc(Cl)cc2Cl)S1 (stereo unspecified)	inactive: > 100 µM
[N-]=[N+]=C1C(=O)C2CC3CC1CC2C3 (stereo unspecified)	inactive: > 100 µM
O=C(Nc1cccc(F)c1)c1cc2ccc(O)cc2o/c1=N\c1cccc(F)c1	inactive: 5.61 µM
O=C(O)C(Cc1c[nH]c2ccccc12)C(=O)NO (stereo unspecified)	inactive: > 100 µM
O=C(/C=N/c1ccccc1C(=O)O)c1cccs1	inactive: 18.7 µM
CCC(C)C1NC(=O)C(NC(=O)C(CC(C)C)N(C)C(=O)[C@@H]2CC(O)CN2C(=O)[C@H](C)O)C(C)OC(=O)[C@H](Cc2ccc(OC)cc2)N(C)C(=O)[C@@H]2CCCN2C(=O)[C@H](CC(C)C)NC(=O)C(C)C(=O)[C@H](C(C)C)OC(=O)CC1O (stereo partly specified)	active: 0.179 µM
CC(C)(C)OC(=O)NC1CCC[C@H]1O (stereo partly specified)	inactive: > 100 µM
C=C[C@@]1(C)CC2CC[C@]3(C)C(C)=CC(=O)CC3[C@]2(C)CC1O (stereo partly specified)	inactive: > 100 µM
CCN(CC)CCOc1ccc(C(O)(Cc2ccc(OC)cc2)c2ccccc2)cc1 (stereo unspecified)	inactive: 35.6 µM
Cc1cnc2[nH]c(-c3cccc(Cl)c3)cc(=O)c2c1	active: 0.0813 µM

Reference: ChEMBL document CHEMBL1201862, “PubChem BioAssay data set” (2004)
